Assay results published in the supplement of paper PMC11417369.
Some of the results follow.

System: PfHDP1 homeodomain (GST-tagged)
Experiment: gcPBM binding intensity (ln(normalized median fluorescence intensity)); higher = stronger DNA binding
How it was run: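 Binding intensity is defined as the maximum Masliner-normalised natural-log median intensity across replicate spots for either probe orientation. It was measured on an Agilent 4 × 180k array of primer-extended double-stranded 36-bp intergenic genomic probes and negative controls, to which GST-tagged P. falciparum DNA-binding domains made in E. coli were applied for 1 h in 1× PBS with 1% milk, 0.2 mg/ml BSA, 0.5% salmon testes DNA and 0.03% Triton X-100. Detection was by Alexa488 anti-GST antibody and scanning at 488 nm.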

Sequence	gcPBM binding intensity (ln)
TTACGCATACTAATTACACACAAATAGATGAATATA [CACACA_site1338]	6.71
ATAAAAAAATAAATTAGTACATATATATATATATAT [XGTACX_site6971]	9.33
TGTTTAAATTTTTTGTTTTTTTTTTTATAAAGCAAA [TGCATGCA_negctrl_site313]	6.09
GTTGAACATAGATGCACACACATAAAATAAAAAAAA [CACACA_site5353]	8.65
ACATATATATATAAATATATATATATATAAATATAT [CACACA_negctrl_site895]	6.89
TTGTTGTTATTTAAAACACACATCAATCATCTTAAC [CACACA_site1142]	6.21
TGAAGGTCAGTTCACAGTACCCAGTAACTCTACGGA [XGTACX_site2554]	5.56
TATATTTTTTTAAAAAGTACTTTGTATATATATATA [XGTACX_site1300]	9
TTAAATTAAAACAAATGTACAAAGTGCATATTTTTT [XGTACX_site8143]	8.64
ATTTTTTTTTCTTTCGCACACGTGAAAGAATTTCTA [CACACA_site2052]	6.93
ATAATTTAATACTAGTGTACAGAAAAAAAAAAAAAA [XGTACX_site6756]	6.54
ATATTATATTATATAACACACATTTTTCATAACACT [CACACA_site407]	6.67
AAGTGTATACAGAAGAGTACAAACAATTTTTTTCTT [XGTACX_site7387]	6.13
TATATATATTTAAGGTGTACATAAATAACAAAATAT [XGTACX_site2641]	6.74
AAAAAACACAGACACACACACATATACATACATACA [CACACA_site2666]	7.19
ATATTTCGTCTAAAAAGTACACAACAATAAAAAGTA [XGTACX_site6668]	7
TTAGGTTTATACACTACACACATTATTCATAAAAAA [CACACA_site871]	6.8
TTTTTTAAATAATATTGTACAAAAAATGTATAAATA [XGTACX_site3010]	6.59
TATTGTTATGTCGTTATTAACTTTCTTTAATTAATT [CACACA_negctrl_site174]	6.91
TGAAAGTTCAATAATTGTACATGTGGAAATTCATAC [XGTACX_site1378]	6.87
AAATATTCATAGTATACACACATTTATATATAATCA [CACACA_site771]	6.66
AAAATTATAAATCTTGCACACAAAAAAAATAATAAA [CACACA_site8771]	8.27
TAAATATATTCAATCACACACATTCGTTTTTTTTTT [CACACA_site234]	6.48
AATTATTTTATGTGAGGTACACCACACATGAAGGGG [XGTACX_site8450]	6.64
